Hit rate of the full screen: of about 43,000 compounds, about 200 (0.47%) were called active. Another 12% or so got no clear call; they are omitted. Calls come from the whole dose curve; as a rule, active = well fitted cell-killing curve with a large enough effect; inconclusive = small, poorly fitted or top-dose-only effect, or effect the other way; inactive = flat fitted curve, though single readings scatter. The list shows a part of the results.
% is set by controls: 0 for no effect and ±100 for the full control effect.

The experiment is described as follows: Cell viability qHTS assay in S16 Pmp22-F2sN cells. Note: nearly all actives have a fitted effect of over 65% in size. The following applies: S16 Pmp22-F2sN Schwann cells (luciferase reporters placed in the Pmp22 gene) viability, CellTiter-Glo, 24 h; series mostly up to 57.5 µM; activity change, negative = cytotoxicity: at the top concentration. A digest of the protocol:
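Luminescence from CellTiter-Glo, read by CCD camera after a 15 min room-temperature incubation, served as the viability signal. Reporter Schwann cells (S16 Pmp22-F2sN) had been treated with pin-transferred compounds for 24 h at 37C.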
In the case of `Cc1ccc(CNC(=O)c2c(C)oc3ncnc(N4CCOCC4)c23)cc1`, the “activity change, negative = cytotoxicity” value was inactive: 2.15%. Take `Cc1ccc(-n2nc(C)c(C(=O)O)c2-n2cccc2)cc1`: the “activity change, negative = cytotoxicity” value is inactive: 8.08%. Turning to `COc1ccc(/C=C\c2onc(C)c2S(=O)(=O)N2CCC(C(=O)Nc3cccc(OC)c3)CC2)cc1`, the “activity change, negative = cytotoxicity” value was inactive: -24.6%.

In the case of `Cc1ccc(S(=O)(=O)Nc2ccc3nc(-c4ccc(F)cc4)oc3c2)cc1`, the “activity change, negative = cytotoxicity” value is inactive: -0.973%. On to `CCC(C)NC(=O)CCC(=O)N1Cc2ccccc2Oc2ncccc21` (stereo not drawn), for which the “activity change, negative = cytotoxicity” value was inactive: 17.9%. The same measure for `CC1=C(C(=O)N2CCN(c3ccccc3)CC2)C2(CCCCC2)OC1=O`: inactive: -2.59%; for `COc1cc(NC(=O)Cn2c(=O)ccc3cc(S(=O)(=O)N4CCCC4)ccc32)cc(OC)c1`: inactive: -18%.

`O=C(NCc1ccccc1)c1cc2ccc3cccnc3c2[nH]1`: the “activity change, negative = cytotoxicity” value was inactive: -0.457%. Turning to `CCc1ccc(-n2c(=O)c3c4c(sc3n(CC(=O)c3ccc(Br)cc3)c2=O)CCC4)cc1`, the “activity change, negative = cytotoxicity” value is inactive: 12.7%. As to `Cc1ccc(NC(=O)Cn2cc(S(=O)(=O)Cc3ccc(F)cc3)c3ccccc32)cc1Cl`, the “activity change, negative = cytotoxicity” value is inactive: -16.1%. Take `CCOc1ccccc1C(=O)N(Cc1sccc1C)C1CCS(=O)(=O)C1` (stereo not drawn): the “activity change, negative = cytotoxicity” value was inactive: -13.4%. On to `COc1ccc(-c2cc(C(F)(F)F)nc(SCC(=O)NCCc3ccccc3)n2)cc1`, for which the “activity change, negative = cytotoxicity” value is inactive: -0.825%. `O=C(Nc1ccccc1)c1nc[nH]c1C(=O)O`: the “activity change, negative = cytotoxicity” value was inactive: -0.162%. As to `COc1cc(OC)c(N(C)C(=O)c2c(C)oc3ncn(CC(C)C)c(=O)c23)cc1Cl`, the “activity change, negative = cytotoxicity” value was inactive: 0.778%. For `Cc1c(-c2ccccc2)nc2c(Cl)cccc2c1C(=O)OCC(=O)c1ccc(F)cc1`, the “activity change, negative = cytotoxicity” value is inactive: 3.89%.

For `CCOC(=O)CSc1nc2cc3c(cc2c(=O)n1Cc1ccc(C(=O)NCCc2ccc(OC)c(OC)c2)cc1)OCO3`, the “activity change, negative = cytotoxicity” value was inactive: 7.77%.

Consider `O=C(CSCc1cnn(-c2ccccc2)c1-n1cccc1)NCc1cccc(Cl)c1`, for which the “activity change, negative = cytotoxicity” value is inactive: -17.3%. As to `CCCSc1ncc(Cl)c(C(=O)Nc2sc3c(c2C(=O)OC)CCCC3)n1`, the “activity change, negative = cytotoxicity” value was inactive: 13.8%. The same measure for `N#Cc1c(-n2ncnc2-c2ccc(F)cc2)sc2c1CCCCC2`: inactive: 2.4%; for `COc1cccc(N2CC(NC(=O)c3cc(Cl)ccc3OC)CC2=O)c1` (stereo not drawn): inactive: 2.29%. Consider `COc1ccc(OC)c(NS(=O)(=O)c2ccc(N3CCCCS3(=O)=O)cc2)c1`, for which the “activity change, negative = cytotoxicity” value was inactive: -4.5%. In the case of `Cc1ccc(C(=O)N/C(=C\c2ccc(Cl)cc2)C(=O)NC2CCCCC2)cc1`, the “activity change, negative = cytotoxicity” value was inactive: 3.56%. `CCCNC(=O)C1CCC(Cn2c(=O)c3sccc3n(CC(=O)NCc3cccc(OC)c3OC)c2=O)CC1` (stereo not drawn): the “activity change, negative = cytotoxicity” value is inactive: -1.8%. The same measure for `CCOc1ccc(N2CC(NC(=O)C3CCCC3)CC2=O)cc1` (stereo not drawn): inactive: 13.5%. As to `Cc1ccc(C)c(N2CCN(CCCNC(=O)c3ccc4nc(CCc5ccccc5)oc4c3)CC2)c1`, the “activity change, negative = cytotoxicity” value was inactive: 3.4%. The same measure for `Cc1cc(C)c2c(NC(=O)c3ccccc3)c(C(=O)Nc3ccc(F)cc3)sc2n1`: inactive: -4.63%; for `COc1ccc(NC(=O)c2ccco2)cc1NC(=O)c1cc(OC)c(OC)c(OC)c1`: inactive: 0.838%; for `COc1ccc(C(=O)c2sc(Nc3ccccc3)nc2N)cc1`: inactive: 7.66%. In the case of `CC(=O)c1cccc(NC(=O)CN(c2cc(C)cc(C)c2)S(=O)(=O)c2c(C)noc2C)c1`, the “activity change, negative = cytotoxicity” value is inactive: 0.448%.

Consider `N#Cc1c(C(F)(F)F)cc(-c2cccs2)nc1SCC(=O)Nc1cccc(Cl)c1`, for which the “activity change, negative = cytotoxicity” value was inactive: 0.826%.

With `O=C(Nc1ccccc1Cl)N1CCSc2ccccc21`, the “activity change, negative = cytotoxicity” value was inactive: 19.3%. For `CCOC(=O)Cn1c(=O)n(C2CCCCC2)c2nc(-c3c(F)cccc3Cl)nc(C(N)=O)c21`, the “activity change, negative = cytotoxicity” value was inactive: 6.69%.

For `CC(C)CCn1c(/C=C/c2ccccc2)nc2ccccc21`, the “activity change, negative = cytotoxicity” value is inactive: -11%. The figure for `Cc1cc(C)cc(NC(=O)CSc2nc3nccnc3c(=O)n2CCc2c[nH]c3ccccc23)c1` is inactive: -10.9%. In the case of `Cc1ccc(NC(=O)c2cnc3sc(N4CCOCC4)nn3c2=O)cc1N(C)C`, the “activity change, negative = cytotoxicity” value is inactive: 13.7%. Regarding `COc1ccc(Nc2nc(C)nc(N)c2S(=O)(=O)c2ccccc2)cc1`, the “activity change, negative = cytotoxicity” value was inactive: -15.7%. For `O=C(c1ccc2c(c1)N(Cc1ccccc1)C(=O)c1ccccc1S2(=O)=O)N1CCN(Cc2ccccc2)CC1`, the “activity change, negative = cytotoxicity” value is inactive: -7.79%. The same measure for `Cc1cccc(NC(=O)Cn2c(=O)n(CCCCCC(=O)NCc3ccc4c(c3)OCO4)c(=O)c3sccc32)c1`: inactive: -2.93%; for `COC(=O)c1scc(-c2ccc(C)cc2)c1S(=O)(=O)Nc1cc(C)ccc1OC`: inactive: -4.5%; for `Nc1nn(-c2ccccc2)nc1C(=O)OCc1ccccc1`: inactive: 5.4%. As for `CC1CCCN(CCCNC(=O)Cn2ncc3c([nH]c4ccccc43)c2=O)C1` (stereo not drawn), the “activity change, negative = cytotoxicity” value is inactive: 24%. Regarding `CCCCn1c(=O)nc2n(-c3ccc(Br)cc3)c3ccccc3cc-2c1=O`, the “activity change, negative = cytotoxicity” value is inactive: 10.6%. On to `CC(C)(C)C(=O)Nc1ccccc1C(=O)OCc1cc(=O)n2ccsc2n1`, for which the “activity change, negative = cytotoxicity” value was inactive: 0.296%. The figure for `CCc1ccccc1-n1nnc(-c2nsc(NC(=O)c3ccc(C)c(C)c3)n2)c1C` is inactive: -17.1%; for `Cc1ccc(-n2c(SCC(=O)N3CCCc4ccccc43)nc3c([nH]c4ccccc43)c2=O)cc1` it is inactive: -2.03%; for `COCCCNC(=O)CSC1=Nc2ccccc2C2=NC(CCC(=O)NCc3ccc(OC)cc3)C(=O)N12` (stereo not drawn) it is inactive: 10.7%. Regarding `COc1cccc(C(=O)Nc2nc(-c3ccc(Br)cc3)ns2)c1`, the “activity change, negative = cytotoxicity” value is inactive: -6.28%.

For the compound `Cc1nc2ccc(S(=O)(=O)NCC(=O)Nc3ccc(F)cc3F)cc2s1`, the “activity change, negative = cytotoxicity” value was inactive: 8.62%.
